Test results reported in the supplement of paper PMC11417369.
Some of the results follow.

The sequences below were run on PF3D7_0420300 AP2 domain 1 (GST-tagged) (assay: gcPBM binding intensity (ln(normalized median fluorescence intensity)); higher = stronger DNA binding).
Outline: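 Using an Agilent 4 × 180k array, primer-extended double-stranded 36-bp intergenic genomic probes and negative controls were exposed for 1 h to GST-fused P. falciparum DNA-binding domains expressed in E. coli. Binding was carried out in 1× PBS with 1% milk, 0.2 mg/ml BSA, 0.5% salmon testes DNA and 0.03% Triton X-100, and protein was detected with Alexa488 anti-GST antibody and a 488 nm scan. Binding intensity is the highest Masliner-normalised natural-log median intensity across replicate spots of either probe orientation.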

Going from “AATTTTTTTTTTTTGTGTCCTCATAATTCTTCATTC [XGTACX_site5042]” to “AAAATTAAAACCTACACACACATTTAAAAAAAAAAA [CACACA_site3068]”, the “gcPBM binding intensity (ln)” value rises from 9.41 to 9.88.

Going from “ATTTTTTTGGTAATTTGTACATAATATATACATAAT [XGTACX_site3742]” to “TTTTTTTTTTTTACATGTACTTATTTTAAATATAAA [XGTACX_site805]”, the “gcPBM binding intensity (ln)” value falls from 9.32 to 9.14.

Going from “TATATTTATTTAAAAACATGCATTTTTTTTTTCCGT [TGCATGCA_site44]” to “ATATATTTATAGACTTGTACATATATATACGATATA [XGTACX_site8890]”, the “gcPBM binding intensity (ln)” value rises from 8.99 to 9.15.

First: TATATTATAGGTTGTGTACACATATTATATAGTACT [CACACA_site4583]
Second: TAAAAGTTTTTATACATACACACCTATAAATTAAGT [CACACA_site2446]
The “gcPBM binding intensity (ln)” value of the first is higher: 9.42 for the first, 9.39 for the second.

Compared with “CTTTATTATAAGATTACACACATGTCTTATAATTTA [CACACA_site5715]”, “TACCAAAAAAAAAAAAATAAAAATAAAAAAAAAAAT [CACACA_negctrl_site1714]” is lower in “gcPBM binding intensity (ln)” value: 9.45 for the first, 9.13 for the second.

Compared with “AAAATAAAAATAAAAGCACACATAAATATATATATA [CACACA_site8409]”, “TAACTATTATAAAAATGTACAAATGAAAATATTTTT [XGTACX_site1438]” is lower in “gcPBM binding intensity (ln)” value: 9.61 for the first, 9.2 for the second.

Going from “TTCCTGTTAATTACAACACACAATTTTTATTTTATG [CACACA_site779]” to “TTTCAACTTTTGTCATGTACACATAATTTTATTGCA [XGTACX_site6701]”, the “gcPBM binding intensity (ln)” value falls from 9.61 to 9.3.

First: ATTTATTTATCAAATATTATCTTAAAAAAAAAAGAA [CACACA_negctrl_site1345]
Second: CATCTGGTATCTAATAGTACATATATATAATATCTT [XGTACX_site2774]
The “gcPBM binding intensity (ln)” value of the first is lower: 8.79 for the first, 9.3 for the second.

First: AACAAAAGAAAAAAATATATATATTCGTCCTATTTT [CACACA_negctrl_site444]
Second: TATATATGCATTAAAGTGTTTTTTTTTTTTTTTTTT [CACACA_negctrl_site1353]
The “gcPBM binding intensity (ln)” value of the first is higher: 9.31 for the first, 9.11 for the second.

First: TGTATAACCATAAATTGTACAGAAAAAAGTATAAAA [XGTACX_site1493]
Second: TTAAAAAATATATACGTTGATATAATACAACTTGAC [CACACA_negctrl_site1551]
The “gcPBM binding intensity (ln)” value of the first is higher: 9.29 for the first, 9.16 for the second.

Compared with “ATGTGTATATGTTAATGTACAAATTTTGAAAATGCC [XGTACX_site2685]”, “ATTTTTTTTTTTTATGGTACACACACGCGTATGGTT [XGTACX_site3888]” is higher in “gcPBM binding intensity (ln)” value: 9.5 for the first, 9.93 for the second.

First: CGACTTTTAAAATATACACACATATAAATAAATATA [CACACA_site6523]
Second: TTACAATATAATAAATGTACATATAACAAATATATA [XGTACX_site2199]
The “gcPBM binding intensity (ln)” value of the first is higher: 9.37 for the first, 9.34 for the second.

Compared with “TTTTTTTTTTTTTGTAGTACATACTATTTTATTAAT [XGTACX_site950]”, “TAGATGTATTTTTAAAGTACTTTTTAATATATAATC [XGTACX_site1431]” is lower in “gcPBM binding intensity (ln)” value: 9.22 for the first, 9 for the second.

First: AGAATTATATACACAAGTACATAATGACATATATAT [XGTACX_site5617]
Second: TAAAAAATTATATTCACACACATACACATATATATA [CACACA_site545]
The “gcPBM binding intensity (ln)” value of the first is lower: 9.4 for the first, 9.83 for the second.

First: ATATTAAATATATACAGTACACATTACAATACAATA [XGTACX_site3221]
Second: CTTTGTAGTTGGTCCACACACATATCTGGAAGAATA [CACACA_site4834]
The “gcPBM binding intensity (ln)” value of the first is higher: 9.65 for the first, 9.39 for the second.

Compared with “TATTTTCCATGAGGTAGTACACATTAAAAAATCGTT [XGTACX_site6887]”, “TAAGCGTTTTTTAAAACACACATAAGAACTAAATGA [CACACA_site1670]” is higher in “gcPBM binding intensity (ln)” value: 9.08 for the first, 9.24 for the second.

Going from “TTTCTTAAACCGTACAGTACACACCTTTATAATGTT [XGTACX_site434]” to “TTACACCTTAGGATCTGTACAAATATATGACAAATC [XGTACX_site4333]”, the “gcPBM binding intensity (ln)” value falls from 9.46 to 9.18.

Going from “TAATATTAAAAAGAGACACACAAAAATATTAAAAAA [CACACA_site3120]” to “AAGGTTTTGGGTTTTAATTAATTTAATATGATTATA [XGTACX_negctrl_site147]”, the “gcPBM binding intensity (ln)” value falls from 9.54 to 9.34.

First: TCTATACCTATTCTTACACACATATGTATAAATATA [CACACA_site6407]
Second: TTGACAACTCTTTTCATACACACAAAAAAAAAAAAA [CACACA_site2362]
The “gcPBM binding intensity (ln)” value of the first is higher: 9.65 for the first, 9.19 for the second.

Compared with “ACTAAAAAAATAAACACACAGATTTATATAATATAT [CACACA_site4884]”, “ATACAATTCTTACATTGTACTTTTTTTTTTTATCAC [XGTACX_site6327]” is lower in “gcPBM binding intensity (ln)” value: 9.6 for the first, 9.23 for the second.

Going from “TGTATATCACATGAGAGGTGGAGATGGGGATAAATA [CACACA_negctrl_site1148]” to “TACAACCTTTAGACAAGTACAAGAATTATATGTGGC [XGTACX_site4581]”, the “gcPBM binding intensity (ln)” value rises from 9.31 to 9.4.

Compared with “TAATACAGATTAAAAGGTACACTTATTTGGTATTAT [XGTACX_site4966]”, “TTAATATGAATTATTACATGCAACTAAATATATTTA [TGCATGCA_site490]” is lower in “gcPBM binding intensity (ln)” value: 9.28 for the first, 9.09 for the second.

First: ACAAAATATATAGACACACAAACACAAATATGTTTT [CACACA_site3016]
Second: ATTTAAAAAAAAACGGAATTTTTTTTTTTTTTAAAG [XGTACX_negctrl_site91]
The “gcPBM binding intensity (ln)” value of the first is higher: 9.63 for the first, 8.83 for the second.

Going from “ACATATATGTATAATACACACACTAATATATAATTG [CACACA_site1966]” to “ATATTCATATATTTACGTACATACATTTATATATTT [XGTACX_site7644]”, the “gcPBM binding intensity (ln)” value falls from 9.71 to 9.53.

Compared with “TATATTAATGTTCATAGTACGTATGATTAGGAAAAA [XGTACX_site616]”, “GGAAAGACAGTTCACAGTACCCAGGAAATCTGCGGA [XGTACX_site4933]” is higher in “gcPBM binding intensity (ln)” value: 9.1 for the first, 9.25 for the second.

First: TTTAGTTTTTATATAGCACACATATTGTGATTATGT [CACACA_site8316]
Second: AATTTATAAAAGAAGAGGACACATATAAATATAAAT [XGTACX_site59]
The “gcPBM binding intensity (ln)” value of the first is lower: 9.19 for the first, 9.66 for the second.

Compared with “TATCTTTATATATAGTGTACACATTAAACAAATCTC [XGTACX_site7381]”, “TATTAATGATAAGAATATTTTATATGATACATGCAT [CACACA_negctrl_site923]” is lower in “gcPBM binding intensity (ln)” value: 9.18 for the first, 9.02 for the second.

Going from “AATAATTAACAAAAAAAAAAAAAAAAAAAAAAAAAA [GTGCAC_negctrl_site255]” to “TATAAATAAATATGTACACACATATATACCTTTCAT [CACACA_site7291]”, the “gcPBM binding intensity (ln)” value rises from 8.53 to 9.54.

Compared with “TATGTATTATATATTTGTACTCATTCTAATTCCTTC [XGTACX_site7294]”, “TATTATATTTTTATTTGTACGTAAAATTAAGTTATG [XGTACX_site2405]” is lower in “gcPBM binding intensity (ln)” value: 9.32 for the first, 9.16 for the second.

Going from “AAAAATATAAACAAACGTACGAAGTGATGATATATT [XGTACX_site2242]” to “GAATTGTATTGGTACTGTACAATTAAATTAAAAAAA [XGTACX_site1891]”, the “gcPBM binding intensity (ln)” value falls from 9.7 to 8.79.

First: TGTAGTCTGGAGAAGAGTACATAGTATCTGGTAGCT [XGTACX_site2029]
Second: ACATAAAATTATTATACATGCATATTTAATTTTTTC [TGCATGCA_site353]
The “gcPBM binding intensity (ln)” value of the first is higher: 9.17 for the first, 9.16 for the second.

Going from “AAAAAAAAAAAACACACACACACACCCATATATAAA [CACACA_site1170]” to TTTTTTGTTAAGTTGGTGCAAACAATAGTTATTGAC, the “gcPBM binding intensity (ln)” value falls from 10.2 to 8.95.

First: GGAGCACCCAGACACACACACACATATATATATATA [CACACA_site336]
Second: TATATCTACTACACACGTACACAAAATAAGATACCT [XGTACX_site7886]
The “gcPBM binding intensity (ln)” value of the first is higher: 10.1 for the first, 9.64 for the second.

First: AATAAAAAAATATGAAATTATGACATATAGCATTTG [TGCATGCA_negctrl_site160]
Second: TACATAAATTAAAACACACACACACCCAAAAAAAAA [CACACA_site2261]
The “gcPBM binding intensity (ln)” value of the first is lower: 9.21 for the first, 10.1 for the second.

First: AAAAAATAAAAAGATACACACATATGTATAATATAC [CACACA_site1496]
Second: GTGTATATTATTTTATCACACATGTACATATGTTAA [CACACA_site5473]
The “gcPBM binding intensity (ln)” value of the first is higher: 9.63 for the first, 9.4 for the second.

Going from “GTTAAAAGAAAAATATGTACATAAAAAAATTAGAAA [XGTACX_site578]” to “CTCTTGTTTCCATATAGTACGTAATAATATATACAA [XGTACX_site2428]”, the “gcPBM binding intensity (ln)” value rises from 9.26 to 9.27.

First: TATATATATATATGATGTACACATTTTATTATTTGT [XGTACX_site1147]
Second: TTTTCAATTAAAAAAAAATTATATTTTATTATTACA [CACACA_negctrl_site142]
The “gcPBM binding intensity (ln)” value of the first is higher: 9.31 for the first, 8.7 for the second.

Compared with “AAGATGGTAAAGAATTGTACGCGCATATATATATTT [XGTACX_site3904]”, “AATTTGATAATATCATGTACATGAAAGAATTCATGA [XGTACX_site8463]” is lower in “gcPBM binding intensity (ln)” value: 9.46 for the first, 9.04 for the second.

Going from “ATAATGATATATAGTACACACAAAAATGGAAGTAAA [CACACA_site7541]” to “GGACATTTTTATAAGGTGCACGGTTTTGATATTACT [GTGCAC_site9892]”, the “gcPBM binding intensity (ln)” value falls from 9.88 to 9.46.

Going from “AACCACATACATATAACACACATATACAATATATAT [CACACA_site8607]” to “AAGGGTTGCCTGTGTAGTACATATATATATATATAT [XGTACX_site8555]”, the “gcPBM binding intensity (ln)” value falls from 9.65 to 9.33.

Going from “TGACTATGTATATTTAGTACATAAAATCAATAATAT [XGTACX_site4082]” to “AAATTATATTATTGAACACACGTTTGGTAATGTTTT [CACACA_site5469]”, the “gcPBM binding intensity (ln)” value rises from 9.16 to 9.33.

Going from “TCATTCATAAAAATAACACACAAAAAAAAAAAAAAA [CACACA_site1800]” to “GTAAACAAAATATTTTGTACATATTTTATATTATTT [XGTACX_site7837]”, the “gcPBM binding intensity (ln)” value falls from 9.27 to 9.26.

First: AAATATAAGAAAAAGGTGCTTTTTTTTTTTTTTTTT [GTGCAC_site9700]
Second: AGGGAAAAAAAAAAAGTGCATTTGTATTAAATGAAT
The “gcPBM binding intensity (ln)” value of the first is lower: 9.1 for the first, 9.14 for the second.

First: GGCATAAATATATGCACACACAAAAAAAAAAAAAAA [CACACA_site59]
Second: ATATTGTTTTATATAGAACACACATAAAAATATATA [CACACA_site8314]
The “gcPBM binding intensity (ln)” value of the first is lower: 9.34 for the first, 9.39 for the second.
